Structures are written as SMILES. Hit rate of the full screen: of about 310,000 compounds, about 14,000 (4.5%) showed an effect of 50% or more. The effect is printed as a negative number. This is one part of the list.

This is an account of results in paper PMC4336329 (PLoS ONE, 2015).
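Further: peak tail current of the secondary pulse compared with the same well before compound.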

human ether-à-go-go-related gene (hERG) potassium channel, sequence (Q12809 whole entry, looked up): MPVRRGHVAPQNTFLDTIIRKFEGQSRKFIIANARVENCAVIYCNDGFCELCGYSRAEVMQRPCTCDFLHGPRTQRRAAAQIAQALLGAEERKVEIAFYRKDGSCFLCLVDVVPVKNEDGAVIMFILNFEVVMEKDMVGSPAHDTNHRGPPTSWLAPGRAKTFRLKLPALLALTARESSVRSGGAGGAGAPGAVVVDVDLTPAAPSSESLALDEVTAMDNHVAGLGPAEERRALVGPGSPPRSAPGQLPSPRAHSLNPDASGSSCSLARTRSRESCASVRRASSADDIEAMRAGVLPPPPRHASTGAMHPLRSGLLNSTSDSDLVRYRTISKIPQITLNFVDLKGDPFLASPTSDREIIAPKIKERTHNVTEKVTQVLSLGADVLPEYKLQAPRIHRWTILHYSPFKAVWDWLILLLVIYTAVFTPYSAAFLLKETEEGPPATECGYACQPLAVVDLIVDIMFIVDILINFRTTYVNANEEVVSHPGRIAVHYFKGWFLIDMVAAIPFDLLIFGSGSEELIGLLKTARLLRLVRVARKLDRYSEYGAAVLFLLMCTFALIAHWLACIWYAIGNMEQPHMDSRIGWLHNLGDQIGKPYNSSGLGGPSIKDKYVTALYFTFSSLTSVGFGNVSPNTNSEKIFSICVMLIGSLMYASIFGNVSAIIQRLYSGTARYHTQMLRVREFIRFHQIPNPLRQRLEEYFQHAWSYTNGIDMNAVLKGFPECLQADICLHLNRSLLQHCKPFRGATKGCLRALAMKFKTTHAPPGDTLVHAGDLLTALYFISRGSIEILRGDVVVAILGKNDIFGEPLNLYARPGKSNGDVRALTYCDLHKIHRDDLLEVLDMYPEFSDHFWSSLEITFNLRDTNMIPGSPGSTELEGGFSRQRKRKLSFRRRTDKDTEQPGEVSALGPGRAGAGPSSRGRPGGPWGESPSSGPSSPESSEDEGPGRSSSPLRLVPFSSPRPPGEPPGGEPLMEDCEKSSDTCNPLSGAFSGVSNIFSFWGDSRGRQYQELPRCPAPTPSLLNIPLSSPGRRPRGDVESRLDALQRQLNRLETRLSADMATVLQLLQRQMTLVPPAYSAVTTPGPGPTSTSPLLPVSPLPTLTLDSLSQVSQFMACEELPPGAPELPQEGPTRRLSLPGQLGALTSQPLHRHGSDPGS

This test concerns the target human ether-à-go-go-related gene (hERG) potassium channel (human, UniProt Q12809). The experiment in a line: primary screen, population patch clamp on CHO cells stably expressing hERG.
Regarding `COc1ccccc1C(=O)N1CCN(S(=O)(=O)Cc2ccccc2)CC1`, the “hERG current change (%, negative = inhibition) at 10uM” value is 0.496%.
`Cc1cc(C)n(C(=O)CNC(=O)c2ccco2)n1`: the “hERG current change (%, negative = inhibition) at 10uM” value amounted to 11.9%.
`O=C1c2[nH]nc(-c3ccccc3O)c2C(c2cccc(O)c2)N1Cc1ccco1` (centres unmarked): the “hERG current change (%, negative = inhibition) at 10uM” value was -3.29%.
For the compound `COc1cccc(-n2nnnc2SCC(=O)Nc2ccc3c(c2)OCCO3)c1`, the “hERG current change (%, negative = inhibition) at 10uM” value came to 6.02%.
With `O=C(NCCO)C(F)(F)C(F)(F)C(F)(F)OC(F)(C(=O)NCCO)C(F)(F)F` (centres unmarked), the “hERG current change (%, negative = inhibition) at 10uM” value was 8.31%.
As to `Cc1ccc(-n2nc3c(c2NC(=O)c2ccccc2)CS(=O)(=O)C3)cc1C`, the “hERG current change (%, negative = inhibition) at 10uM” value is -45.3%.
Consider `Cc1ccc(Nc2nc(Cl)nc(NC3CCCCC3)n2)cc1`, for which the “hERG current change (%, negative = inhibition) at 10uM” value worked out at 13.2%.
`Cn1c(SCc2nc(-c3ccc(Cl)cc3)no2)nnc1-c1cccs1`: the “hERG current change (%, negative = inhibition) at 10uM” value was -1.95%.
For `CCOc1cc(C2C3=C(CC(C)(C)CC3=O)N(CCCOC)C3=C2C(=O)CC(C)(C)C3)ccc1OC` the value was -8.34%; for `Cc1ccc(OCCSc2cc(C)nc(N)n2)cc1`, -8.47%.
In the case of `COc1ccc(S(=O)(=O)N(CC(=O)NC2CC2)c2ccc(C)cc2)cc1` it was -0.125%; in that of `CN(CCO)c1cc(Sc2nc3ccccc3s2)c2nonc2c1[N+](=O)[O-]`, 23.7%.
For the compound `O=C(O)Cc1ccc(C(=O)c2cccs2)s1`, the “hERG current change (%, negative = inhibition) at 10uM” value is 11.8%.
On to `CCCC1(c2ccccc2)NC(=O)N(CC(=O)N(C)Cc2c(F)cccc2Cl)C1=O` (centres unmarked), for which the “hERG current change (%, negative = inhibition) at 10uM” value is -2.69%.
As to `Nc1nc2nc(-c3ccc(F)cc3)cc(C(F)(F)F)n2n1`, the “hERG current change (%, negative = inhibition) at 10uM” value is given as 3.62%.
As to `Cc1cc(Nc2cc(Cl)nc(Sc3ccc(NC(=O)C4CC4)cc3)n2)n[nH]1`, the “hERG current change (%, negative = inhibition) at 10uM” value is -1.43%.
In the case of `CCn1ncc(N2CCOCC2)c(Cl)c1=O` it was 10.9%; in that of `COc1ccc(OC)c(NC(=O)CSc2nnc(-c3ccco3)n2-c2ccccc2)c1`, -11%.
Regarding `O=C1NC(=O)/C(=C\c2ccccc2OCc2ccccc2)S1`, the “hERG current change (%, negative = inhibition) at 10uM” value worked out at 36.7%.
In the case of `Cc1ccc(S(=O)(=O)Nc2ccccc2C(=O)N2CCCC2)cc1`, the “hERG current change (%, negative = inhibition) at 10uM” value is listed as 0.25%.
In the case of `CC(C)OC(=O)CSc1nnc(-c2ccc(Cl)cc2)n1N` it was -2.07%.
As for `Cc1ccccc1NC(=O)Cc1nnc(SCC(=O)N2CCN(c3ccccc3)CC2)n1C`, the “hERG current change (%, negative = inhibition) at 10uM” value amounted to 3.41%.
With `CCN(CC)C(=O)c1ccc(COc2ccc(Cl)c(C)c2)o1`, the “hERG current change (%, negative = inhibition) at 10uM” value is on record as -9.32%.
On to `C=CCOc1ccccc1CNc1ccccc1C`, for which the “hERG current change (%, negative = inhibition) at 10uM” value was -15.7%.
Turning to `CCOc1ccccc1NC(=O)Cn1nnc(C(=O)NCCc2ccc(OCC)c(OCC)c2)c1N`, the “hERG current change (%, negative = inhibition) at 10uM” value was 12.3%.
In the case of `CSCCC(NC(=O)c1ccccc1Cl)C(=O)N(C)Cc1cccs1` (centres unmarked) it was 5.81%; in that of `CCOc1ccc(NC(=O)C(CC(=O)O)Cc2ccc(C)cc2)cc1` (centres unmarked), 12.2%; in that of `COc1ccc(/C=C/c2nnc(NC(C)=O)s2)cc1`, 7.96%.
Turning to `O=C(N/N=C/c1cccnc1)c1ccc(O)cc1`, the “hERG current change (%, negative = inhibition) at 10uM” value amounted to 13.4%.
`CCCN(CC(=O)Nc1ccccc1OC)C(=O)CN1C(=O)NC2(CCCCC2)C1=O`: the “hERG current change (%, negative = inhibition) at 10uM” value was -0.388%.
Regarding `CCN(CC)c1ccc(N2C(=O)/C(=C/c3cccs3)SC2=S)cc1`, the “hERG current change (%, negative = inhibition) at 10uM” value stood at 11.7%.
As for `COc1cccc(CNC(=O)C2CCN(S(=O)(=O)c3ccc4c(c3)OCCO4)CC2)c1`, the “hERG current change (%, negative = inhibition) at 10uM” value stood at 12.7%.
On to `CCC(=O)Nc1nnc(S(=O)(=O)N(C)c2ccccc2)s1`, for which the “hERG current change (%, negative = inhibition) at 10uM” value is reported as 26.3%.
Take `O=C(c1cnc2n(c1=O)CCS2)N(C1CCCCC1)C1CCCCC1`: the “hERG current change (%, negative = inhibition) at 10uM” value is listed as -7.58%.
For `COc1ccc(C(=O)NN=C(Cc2ccccc2)Cc2ccccc2)cc1OC` the value was 4.5%; for `CCn1ncc(Br)c1C(=O)Nc1c(C)nn(Cc2c(F)c(F)c(F)c(F)c2F)c1C`, 7.03%; for `Cc1cc(C)cc(C(=O)N2CC(=O)Nc3ccccc32)c1`, -17.3%.
In the case of `Cc1cc(NC(NC(=O)c2ccco2)(C(F)(F)F)C(F)(F)F)no1`, the “hERG current change (%, negative = inhibition) at 10uM” value was -6.53%.
In the case of `CC1CCc2[nH]c3ccc(C(=O)NCCCOC(C)C)cc3c2C1` (centres unmarked) it was 2.26%.
In the case of `COc1ccc(NC(=O)Nc2c(O)ccc3ccccc23)cc1` it was 3.94%.
In the case of `O=C(c1cc(-c2ccc3c(c2)OCO3)on1)N1CCOCC1` it was 6.17%.
As to `C=CCn1c(COc2ccccc2F)nnc1SCC(=O)Nc1cc2oc3ccccc3c2cc1OC`, the “hERG current change (%, negative = inhibition) at 10uM” value stood at 2.94%.
For `N/C(CCS(=O)(=O)c1ccc(Cl)cc1)=N\OC(=O)c1ccc(Cl)cc1` the value was 3.44%; for `Cc1ccc(Nc2nc(NCCO)c3ccccc3n2)cc1C.Cl`, -52.4%.
